From PubChem BioAssay AID624418 (National Center for Advancing Translational Sciences (NCATS), 2012)
In all, about 410,000 compounds went through this assay and about 530 (0.13%) were called active. This list was built around the results that the source calls inconclusive (neither active nor inactive); the mix of calls is not that of the screen. The call rests on the fitted dose curve; in most records, active means well fitted inhibition curve with a large enough effect; inconclusive means small, poorly fitted or top-dose-only effect, or another doubt; inactive means no such curve, though single readings can be large or run the other way. Potencies of inconclusive entries are doubtful fits and often do not repeat.

test: qHTS of GLP-1 Receptor Inverse Agonists: Cytotox Screen; settings: HEK293 cAMP-luciferase reporter cells, luminescence, 24 h; activity change, negative = inhibition: at 38.3 µM (top of the series) unless noted
Outline: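 To flag toxic compounds, the library was rerun on cells for 24 hr at 37 deg C and 5% CO2. Viability-linked luminescence was captured 12 min after adding luciferase detection reagent.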
On the % scale 0 is the no-effect control and ±100 the full control effect; potency means the concentration at half of the fitted maximal effect.

SMILES	activity change, negative = inhibition	Potency
Cc1ccc(C(=O)NCCCNC(=O)COc2ccc(C)c(C)c2)cn1	inactive: 6.11%	–
CN(C)Cc1cc(C(C)(C)C)c(O)c(C(C)(C)C)c1	inactive: -1.32%	–
Cn1c(=N)n(CC(O)c2cccc3ccccc23)c2ccccc21 (stereo not drawn)	–	inconclusive: 28.2 µM [inhibitor, single point]
COc1ccc(CCNC(=O)c2nnc(Cc3c(F)cccc3Cl)o2)cc1OC	–	inconclusive: 31.6 µM [inhibitor, single point]
CN(C)c1ccc(/C=C(\C#N)c2nc(-c3ccc(Cl)c(Cl)c3)cs2)cc1	inactive: 0.848%	–
Cc1ccc(C)c(C(C)NC(=O)C2CCCC2)c1 (stereo not drawn)	inactive: 5.69%	–
Cc1ccc(Cn2c(CN3CCC(C(=O)NCCc4ccccc4)CC3)cc3ccccc32)cc1	–	inconclusive: 28.2 µM [inhibitor, single point]
CCO[C@@H]1OC(C(=O)NCc2ccccc2)=C[C@H](c2ccccc2)[C@H]1CCCO	–	inconclusive: 14.1 µM [inhibitor, partial curve, poor fit]
CCNS(=O)(=O)c1ccc(NC(=O)Nc2cccc(C(F)(F)F)c2)cc1	–	inconclusive: 25.1 µM [inhibitor, partial curve, poor fit]
COc1ccccc1C(C[N+](=O)[O-])c1c[nH]c2ccccc12 (stereo not drawn)	inactive: -22.6%	–
S=c1[nH]cc(-c2ccc(Cl)cc2)n1Cc1ccccc1	–	inconclusive: 10 µM [inhibitor, single point]
CCOc1cc(/C=N/NC(=O)Cn2nc([N+](=O)[O-])cc2C)ccc1OCc1ccc(F)cc1	inactive: 11.3%	–
Cn1ccc(C(=O)N/N=C/c2ccncc2)n1	inactive: -10.9%	–
O=C1/C(=C/c2ccc(F)cc2)SC(=S)N1CCCC(=O)N1CCCCC1CCO (stereo not drawn)	–	inconclusive: 14.1 µM [inhibitor, partial curve, poor fit]
NC(c1csc(Nc2cc(Oc3ccccc3)ncn2)n1)C1CCCCC1 (stereo not drawn)	–	inconclusive: 28.2 µM [inhibitor, single point]
CC(NC(=S)Nc1ccc(Cl)cc1Cl)C(c1cccs1)N1CCCC1 (stereo not drawn)	–	inconclusive: 28.2 µM [inhibitor, single point]
CCC1CCCCN1CCCNC(=O)c1cc2c(=O)oc3ccc(C)cc3c2s1 (stereo not drawn)	–	inconclusive: 11.2 µM [inhibitor, single point]
CCc1ccc(C(=O)Cn2ncc(Cl)c(Cl)c2=O)cc1	–	inconclusive: 28.2 µM [inhibitor, single point]
COc1ccc(C)cc1S(=O)(=O)N1CCC(C(=O)NCCC2=CCCCC2)CC1	inactive: -12.9%	–
CCn1c(SCC(=O)Nc2oc(-c3ccccc3)c(-c3ccccc3)c2C#N)nnc1-c1ccco1	inactive: 31%	–
CC(=O)O[C@H]1[C@@H](O)[C@H](O)[C@H](Oc2c(O)c(C)c3c4c2[C@@H](C)CC[C@@H]4[C@@H](C)C[C@H]3C=C(C)C)O[C@H]1C	–	inconclusive: 28.2 µM [inhibitor, single point]
O=C(c1ccccc1)c1ccc2nc(-c3ccc(NC(=O)c4ccccc4F)cc3)[nH]c2c1	–	inconclusive: 15.8 µM [inhibitor, single point]
COc1ccc(-n2c(Cn3c(=O)sc4ccccc43)nnc2SCC(=O)N2CCCCC2)cc1	–	inconclusive: 28.2 µM [inhibitor, single point]

SMILES	activity change, negative = inhibition	Potency
O=[N+]([O-])c1cnc(Sc2ccncn2)c([N+](=O)[O-])c1	–	inconclusive: 28.2 µM [inhibitor, single point]
O=C(c1ccco1)N1CCN=C1SCc1ccc(F)cc1	–	inconclusive: 10 µM [inhibitor, partial curve, poor fit]
CCc1ccc2oc(C(=O)NCc3ccc(S(N)(=O)=O)cc3)c(C)c2c1	inactive: -13.9%	–
Nc1nonc1-n1nnc(C(=O)N/N=C/c2ccc(OCc3ccc(F)cc3)cc2)c1COc1ccccc1	–	inconclusive: 10 µM [inhibitor, partial curve, poor fit]
COC(=O)C1(C)CCCC2(C)C3CCC(C(C)C)C(CO)C3C(CO)CC12 (stereo not drawn)	–	inconclusive: 28.2 µM [inhibitor, single point]
c1cc(-c2sc(-c3ccncc3)c(-c3ccncc3)c2-c2ccncc2)ccn1	–	inconclusive: 28.2 µM [inhibitor, single point]
O=C(NC(c1ccc(F)cc1)c1ccc2ccccc2n1)C1CCN(Cc2ccc(Oc3ccccc3)cc2)CC1 (stereo not drawn)	inactive: -27.8%	–
Cc1sc(N=Nc2ccc(N(C)C)cc2)[n+]([O-])c1C	–	inconclusive: 22.4 µM [inhibitor, single point]
COC(=O)c1c(C)oc2ccc(NS(=O)(=O)c3cc(OC)ccc3OC)cc12	–	inconclusive: 10 µM [inhibitor, partial curve, poor fit]
O=C(NCCCCc1ccccc1)c1cccc(Br)c1	inactive: 7.37%	–
Cc1ccccc1-c1cc2nc(NCCN3CCCC3)n(C)c(=O)c2s1	inactive: 2.16%	–
Nc1ccc(-n2nncc2-c2ccc(Cl)cc2)cc1	–	inconclusive: 0.501 µM [inhibitor, full curve, poor fit]
COC(=O)Cn1c(=N)n(CCN2CCCCC2)c2ccccc21	inactive: -2.84%	–
Cc1cccc(N=C2NC(=O)/C(=C/c3cccn3C)S2)c1C	–	inconclusive: 11.2 µM [inhibitor, single point]
COc1cc(OC)nc(Nc2nc(C(N)Cc3ccc(C(F)(F)F)cc3)cs2)n1 (stereo not drawn)	–	inconclusive: 22.4 µM [inhibitor, single point]
COc1ccc2nc(C)cc(Nc3ccccc3O)c2c1	–	inconclusive: 11.2 µM [inhibitor, partial curve, poor fit]
CCOc1cccc(C2c3c(-c4cc(C)ccc4O)n[nH]c3C(=O)N2Cc2ccco2)c1 (stereo not drawn)	inactive: -20.1%	–
Cc1ccc2sc(N3CCN(C(=O)C4=COCCO4)CC3)nc2c1C	inactive: 2.62%	–
O=C(CN1C(=O)/C(=C/c2ccccc2)SC1=S)N1CCN(CCc2ccccn2)CC1	–	inconclusive: 6.31 µM [inhibitor, partial curve]
COc1ccc(C2CCCN2CC(O)COc2ccccc2C(C)C)cc1 (stereo not drawn)	–	inconclusive: 25.1 µM [inhibitor, single point]
Cc1ccc(NC(=O)Cn2c(=O)oc3cc(S(=O)(=O)NCc4ccccc4)ccc32)cc1	inactive: -0.382%	–
CCCCc1ccc(Nc2nc(CCC)cc(=O)[nH]2)cc1	–	inconclusive: 14.1 µM [inhibitor, single point]
O=c1c2ccccc2[nH]c(=S)n1CCN1CCc2ccccc2C1	–	inconclusive: 31.6 µM [inhibitor, single point]

SMILES	activity change, negative = inhibition	Potency
Cc1ccccc1CN1C(=O)C(O)(CC(=O)c2ccncc2)c2ccccc21 (stereo not drawn)	–	inconclusive: 10 µM [inhibitor, partial curve]
O=C(O)C(C(=O)/C=C/c1ccco1)=C1SCCS1	–	inconclusive: 10 µM [inhibitor, single point]
Clc1ccc(C2[C@H]3CN(Cc4cccnc4)[C@H](c4ccccc4)C34CC2(c2cccnc2)C4)cn1 (stereo partly drawn)	–	inconclusive: 2.82 µM [inhibitor, full curve, poor fit]
CCCS/C(N)=N/N=C/c1ccccc1O	–	inconclusive: 5.01 µM [inhibitor, full curve, poor fit]
Cc1ccc(Cl)cc1N1CCN(CCNC(=O)Nc2ccccc2Cl)CC1	inactive: -5.53%	–
CSc1ccc(CN(C)CC(=O)Nc2c(F)cccc2F)cc1	inactive: 22%	–
CCC(c1nnnn1Cc1ccco1)N(CCc1ccccc1)Cc1cc2cc(C)ccc2[nH]c1=O (stereo not drawn)	–	inconclusive: 11.2 µM [inhibitor, partial curve]
O[C@@H]1CN(C2CCN(Cc3ccccc3)CC2)CC[C@H]1N1CCCCCC1	–	inconclusive: 6.31 µM [inhibitor, partial curve, poor fit]
CCCOC(=O)c1ccc(Oc2cn[nH]c2-c2ccc(OCC)cc2O)cc1	–	inconclusive: 31.6 µM [inhibitor, partial curve, poor fit]
OC(c1ccccc1)(c1nc(-c2ccc3ccccc3c2)cs1)C(F)(F)F (stereo not drawn)	–	inconclusive: 28.2 µM [inhibitor, single point]
C=CCSc1nc2ccccc2n1C(=O)/C=C/c1ccc(OC)c(OC)c1	–	inconclusive: 2 µM [inhibitor, partial curve, poor fit]
Cc1ccc(C)c(OCC(=O)NNC(=O)CCN2CCN(c3ccccc3)CC2)c1	–	inconclusive: 12.6 µM [inhibitor, partial curve, poor fit]
CCCC(=O)Nc1ccc2c(c1)nc(CCN1CCC(C)CC1)n2C	inactive: -23.4%	–
CC(C)c1nnc(NC(=O)CCC(=O)N2CCN(C3CCCCC3)CC2)s1	inactive: 8.95%	–
Cc1ccc2c(c1)C(c1ccc(F)cc1)N(C(=O)c1ccc(OC(C)C)cc1)CC(=O)N2 (stereo not drawn)	–	inconclusive: 28.2 µM [inhibitor, single point]
Cc1cccc(N2CCN(C(=O)CCS(=O)(=O)c3ccc(Br)cc3)CC2C)c1 (stereo not drawn)	inactive: 9.63%	–
Cc1ccccc1C(=O)Nc1cc(-c2ccc(Cl)cc2)nn1-c1ccccc1	inactive: 0.0589%	–
COc1ccc(C(=O)N2CCCc3ccccc32)cc1	inactive: -16.5%	–
O=C(Nc1ccc(Cl)cc1)c1cc(-c2cccs2)on1	–	inconclusive: 0.501 µM [inhibitor, full curve, poor fit]
COc1ccc(CCNC(=O)c2ccc(CNS(=O)(=O)c3cc(C)ccc3C)cc2)cc1OC	–	inconclusive: 28.2 µM [inhibitor, single point]
CCOC(=O)c1ccc(NC(=O)COc2ccccc2CNCCc2ccccc2)cc1	–	inconclusive: 28.2 µM [inhibitor, single point]
COc1cc(NC(=O)c2cccs2)c(OC)cc1NC(=O)CCC(=O)Nc1ccc(C)cc1	–	inconclusive: 22.4 µM [inhibitor, single point]
